# Measurements reported in the supplement of paper PMC3334620.
# In all, about 33,000 sequences were measured (“E-score (-0.5 to 0.5)”: median about -0.012, highest 2% from about 0.29 on). This is one part of the list.
# Molecular target: T1, Ybr033w (UniProt P38073)
# T1 sequence: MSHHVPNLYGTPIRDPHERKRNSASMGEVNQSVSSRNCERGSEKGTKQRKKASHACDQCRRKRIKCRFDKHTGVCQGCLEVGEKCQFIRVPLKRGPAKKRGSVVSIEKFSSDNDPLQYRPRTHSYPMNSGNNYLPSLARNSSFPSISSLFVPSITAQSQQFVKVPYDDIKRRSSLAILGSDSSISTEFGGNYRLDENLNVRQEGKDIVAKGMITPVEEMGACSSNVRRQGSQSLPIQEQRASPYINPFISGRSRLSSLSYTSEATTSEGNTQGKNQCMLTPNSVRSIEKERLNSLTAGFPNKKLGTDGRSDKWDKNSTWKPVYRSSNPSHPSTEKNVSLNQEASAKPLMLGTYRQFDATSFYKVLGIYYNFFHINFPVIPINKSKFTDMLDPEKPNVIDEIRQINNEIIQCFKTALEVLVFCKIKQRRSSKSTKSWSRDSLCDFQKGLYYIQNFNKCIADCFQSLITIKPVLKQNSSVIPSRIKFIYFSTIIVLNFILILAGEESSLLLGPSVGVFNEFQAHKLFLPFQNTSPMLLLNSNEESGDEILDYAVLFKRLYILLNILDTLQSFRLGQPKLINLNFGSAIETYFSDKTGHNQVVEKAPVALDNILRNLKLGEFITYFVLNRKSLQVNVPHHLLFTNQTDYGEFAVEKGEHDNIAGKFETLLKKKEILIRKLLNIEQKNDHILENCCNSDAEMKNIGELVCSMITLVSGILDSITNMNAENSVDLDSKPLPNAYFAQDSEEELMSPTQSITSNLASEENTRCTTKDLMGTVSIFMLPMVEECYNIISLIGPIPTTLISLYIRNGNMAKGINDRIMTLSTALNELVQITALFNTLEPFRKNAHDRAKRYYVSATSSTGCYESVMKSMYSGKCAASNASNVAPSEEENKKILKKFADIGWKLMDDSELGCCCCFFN
# Experiment: PBM E-score (8-mer binding enrichment) (E-score (-0.5 to 0.5)); higher = stronger / more preferred TF binding; most listed sequences are background and not binding sites
# Settings: protein concentration: 200 nM; construct: GST-full length
# Description: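 Universal 'all 10-mer' protein binding microarrays (Agilent AMADID 015681) probed with GST-tagged S. cerevisiae TFs (full-length or DBD) made by in vitro transcription/translation (PURExpress), about 100-200 nM. Bound TF was detected with fluorescent anti-GST. Each ungapped 8-mer (which stands for itself and its reverse complement) is scored by the PBM enrichment score (E-score), a modified Wilcoxon-Mann-Whitney statistic from -0.5 to +0.5, computed with the Universal PBM Analysis Suite. Scale: above 0.35 generally sequence-specific binding.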
row,Sequence,PBM E-score
1,GTAGTCAA,0.0743
2,GGATAGCC,0.0115
3,GCCCCTAC,-0.258
4,AGTTAAAA,0.298
5,ACAAGGTA,0.0991
6,CCTCGAAG,0.0672
7,AGGTTATA,-0.0496
8,ATAAAGTC,0.149
9,GGCTTCAA,-0.038
10,CCGTAGTA,0.0986
11,GCTGAACA,-0.0139
12,ATACTGAT,0.209
13,CAGCCGGC,0.0044
14,CAGGGTAC,-0.158
15,AACCCGAT,0.0784
16,AGAAGGCT,-0.173
17,GGGAGTGA,0.0598
18,CTAACCAA,0.154
19,TACGGTAA,0.256
20,CAGCGCTA,-0.00056
21,CCTGACCC,-0.206
22,GACCCCTC,-0.227
23,GACCACAC,-0.0769
24,GCGCGCGC,0.334
25,GGCCCTAC,-0.256

row,Sequence,PBM E-score
1,CCTTCTCA,-0.0332
2,CTTTGTGA,0.113
3,AAAGAGTA,-0.0458
4,ACCCGGCC,-0.214
5,CGGAAGTC,-0.151
6,AGCTTTGA,0.196
7,CCTGAAAG,-0.0253
8,GATTGGTA,0.179
9,AGGCAACG,-0.117
10,ACATCACC,-0.216
11,CCATAAAA,0.0566
12,ACAATATG,0.199
13,CACTTACG,0.204
14,AACGCCTG,-0.136
15,AATATATT,0.411
16,CTTGAACC,0.132
17,GACAGCCA,-0.0433
18,TCACAGAA,0.149
19,ATCCCTTC,-0.012
20,ACTCTCCA,-0.207
21,AACGACGC,0.0128
22,CAACCCGC,-0.0124
23,CGCCCAAA,0.0399
24,CGCTGAAC,-0.0335
25,GCCAGTGA,-0.22

row,Sequence,PBM E-score
1,CTATACTC,-0.137
2,AGCCGCCC,-0.319
3,CTCGCGGC,-0.256
4,AGTCGCAC,-0.209
5,AATTCTTG,0.232
6,CGATTCCC,-0.0324
7,AGTGAGTG,-0.00539
8,ACAAAATA,0.168
9,CCGAACAG,-0.0132
10,CGTGTAGC,-0.137
11,GATGAATC,0.186
12,ACTCTAAC,0.17
13,GACCGCAC,-0.113
14,CTTATCGC,0.0477
15,TGGCACCA,-0.255
16,ACGGTTCC,-0.0979
17,ATTGTGGG,-0.107
18,GCAGTCCA,-0.029
19,AGCGCGAT,0.0558
20,GCTCCGAC,-0.259
21,ATTCTGCA,0.118
22,ATCTGGGC,-0.0818
23,ATGCGCCA,0.00426
24,AGACGTTC,0.00705
25,CCAAACCG,0.0166

row,Sequence,PBM E-score
1,GTCAAGAC,-0.0889
2,ACCTAAAG,0.00176
3,ATCGAAAT,0.119
4,CTGTAATC,-0.0614
5,AGAGATCA,-0.0351
6,ACGGAACT,0.0148
7,CAAGTTCG,-0.058
8,ATCGACTA,-0.0267
9,ACCCAAGG,-0.051
10,TAACGGGA,-0.0136
11,CAAGATGA,-0.0119
12,TATCAGCA,0.111
13,ATAATGGG,0.152
14,ATATGTAA,0.209
15,CAAGATAA,0.155
16,CGGACGAC,-0.253
17,ACTCCGTA,0.015
18,AGACCAGC,-0.253
19,CGCCGTTC,-0.167
20,ACGATCGG,-0.102
21,CCTGAGAC,-0.235
22,CATATATA,0.182
23,GAGCTACA,-0.0703
24,AGGGACCC,-0.346
25,AGTAAAGC,0.2

row,Sequence,PBM E-score
1,TCCTTTCA,0.106
2,AACAGGAC,-0.0938
3,AACCGCCG,-0.0082
4,AGACAATG,0.0738
5,AAATGCGC,0.0741
6,GTGCAATA,0.172
7,AACCGTTA,0.0172
8,GATAATGA,0.123
9,GACCCATA,-0.0357
10,AAGAAAGT,0.115
11,AGGTGTCC,-0.0803
12,ACTCTATA,0.065
13,CATCGTAA,0.134
14,ACTCACGC,-0.116
15,GGTCATCA,0.00449
16,AGGGAGAA,-0.114
17,CAACCAAA,0.0906
18,ACAAGTAG,0.0414
19,AACTCTAC,-0.0602
20,CCACTACA,0.152
21,CATTGCTA,0.132
22,CCTCTTAA,0.108
23,CCAATTCG,0.0116
24,ATTTCGCA,0.192
25,AAGGTCTG,-0.153

row,Sequence,PBM E-score
1,AGTAAGCC,-0.149
2,CGTAAGTA,0.126
3,AGATAAGC,0.0061
4,CTCACATC,-0.00306
5,CCCAAAGG,-0.251
6,CTAATATA,0.297
7,AAGACGCC,-0.095
8,AGGCCAGG,-0.0666
9,ATCAAAAG,0.176
10,GCCGTGCA,-0.0276
11,TAACTGGA,0.0793
12,GGCCTACC,-0.113
13,CCTAGGTC,-0.0537
14,ATGAGTAC,0.156
15,CCTCGTAC,0.0717
16,AACTTTTA,0.271
17,CCTCAAAA,0.123
18,GCTTTACC,0.0841
19,CTGTCAAG,-0.157
20,GGAACCCC,-0.258
21,CTGACAAG,0.0882
22,ACATCACA,0.197
23,AACTACTA,0.298
24,GCCGATTA,0.0749
25,GCGTCAGA,-0.15

row,Sequence,PBM E-score
1,ATTGCCCC,-0.164
2,CCAGGCCC,-0.325
3,CCTACTAC,0.0252
4,TCAATCGA,0.041
5,ATCCCAAA,0.13
6,AGAAACAG,-0.017
7,CAGAGTGG,-0.134
8,ACGTAGTG,-0.038
9,GATTACCA,0.0921
10,CATTAGGG,-0.0832
11,AAAGTAGT,0.114
12,AGACGCCT,-0.149
13,ACGGTGCC,-0.327
14,ACAAAGTC,0.0213
15,CAGATATC,0.0641
16,AGTGTCAA,-0.0622
17,ACTAGACT,-0.214
18,CCCGCACG,-0.0864
19,ACCTAGGT,-0.151
20,AGTGAAAA,0.183
21,CCGCTGAC,-0.192
22,GTATCGCA,-0.015
23,GAATCACC,0.136
24,CGGGACCG,-0.124
25,CGCAGTTA,0.119

row,Sequence,PBM E-score
1,ACTGGTCT,-0.135
2,AATAAGCC,-0.0887
3,ATGAGCAT,0.0956
4,CCGCCTGA,-0.172
5,CAGGTTTA,0.0674
6,AGCGATGA,-0.00395
7,TAAGACGA,0.0773
8,ATGAGAAA,0.127
9,GCGCACCC,-0.0579
10,GCCTGAAA,0.102
11,ACACACGG,-0.154
12,AACCGACC,-0.0894
13,GAATAACC,0.113
14,CAACGCAG,-0.243
15,ATGCTGAG,-0.308
16,GTAGCCGA,-0.0276
17,CACCTGCA,-0.21
18,GAACGTGA,0.0155
19,GCCTCGTA,-0.0209
20,ACAGACGC,-0.198
21,ACCCTTTC,-0.0654
22,GACGCTCC,-0.0801
23,CATGCTAA,-0.0297
24,GGGCGCCC,-0.148
25,CGTCGGAG,-0.0801

row,Sequence,PBM E-score
1,CTAATGCA,0.252
2,ATAAACCG,0.115
3,CACGTCTC,-0.106
4,GAGGGGCA,-0.347
5,GGAAGGTA,-0.174
6,GAGTAACC,0.0865
7,CAATGAGG,-0.14
8,AGTGCTAT,-0.0398
9,CAATAGGC,0.0941
10,CTGTATGC,-0.0853
11,GGGGGGAA,-0.239
12,GAAAGATC,-0.00374
13,CCAATGCA,0.0225
14,AGAGAAAC,0.0905
15,AGAACCCC,-0.237
16,CTGGGGCA,-0.337
17,TAACGTCA,0.132
18,GCGAGAAA,-0.0549
19,AACCGGCC,-0.18
